Results as given in article PMC9911399, “Two distinct binding modes provide the RNA-binding protein RbFox with extraordinary sequence specificity”.
Residue numbers refer to the chain shown, from its start. This is one part of the list.

T1: RBFOX1 RRM (Homo sapiens, UniProt Q9NWB1 109-208)
T1 sequence: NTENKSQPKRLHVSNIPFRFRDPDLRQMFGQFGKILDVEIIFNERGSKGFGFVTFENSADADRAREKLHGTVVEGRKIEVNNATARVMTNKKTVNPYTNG

B1: UAAUGGC (DNA:RNA)
RNA: GGGAGACCGGAAUUCAGAUUGUCCUAAUGGCUUAAAUCCCGUCGUAGCCACCA
DNA 1: CAATCTGAATTCCGGTCTCCC
DNA 2: TGGTGGCTACGACGGGATT
B2: GUACCCG (DNA:RNA)
RNA: B1 RNA with U25G, A26U, U28C, G29C, G30C, C31G
DNA 1: CAATCTGAATTCCGGTCTCCC
DNA 2: TGGTGGCTACGACGGGATT
B3: AACAAUU (DNA:RNA)
RNA: B1 RNA with U25A, A27C, U28A, G29A, G30U, C31U
DNA 1: CAATCTGAATTCCGGTCTCCC
DNA 2: TGGTGGCTACGACGGGATT
B4: GAAGUGU (DNA:RNA)
RNA: B1 RNA with U25G, U28G, G29U, C31U
DNA 1: CAATCTGAATTCCGGTCTCCC
DNA 2: TGGTGGCTACGACGGGATT
B5: GUCACGG (DNA:RNA)
RNA: B1 RNA with U25G, A26U, A27C, U28A, G29C, C31G
DNA 1: CAATCTGAATTCCGGTCTCCC
DNA 2: TGGTGGCTACGACGGGATT
B6: AACCAUA (DNA:RNA)
RNA: B1 RNA with U25A, A27C, U28C, G29A, G30U, C31A
DNA 1: CAATCTGAATTCCGGTCTCCC
DNA 2: TGGTGGCTACGACGGGATT
B7: UAGUUGA (DNA:RNA)
RNA: B1 RNA with A27G, G29U, C31A
DNA 1: CAATCTGAATTCCGGTCTCCC
DNA 2: TGGTGGCTACGACGGGATT
B8: AACGAUG (DNA:RNA)
RNA: B1 RNA with U25A, A27C, U28G, G29A, G30U, C31G
DNA 1: CAATCTGAATTCCGGTCTCCC
DNA 2: TGGTGGCTACGACGGGATT
B9: AGCCUCG (DNA:RNA)
RNA: GGGAGACCGGAAUUCAGAUUGUCCAGCCUCGUUAAAUCCCGUCGUAGCCACCA
DNA 1: CAATCTGAATTCCGGTCTCCC
DNA 2: TGGTGGCTACGACGGGATT
B10: ACAGGGA (DNA:RNA)
RNA: B1 RNA with U25A, A26C, U28G, C31A
DNA 1: CAATCTGAATTCCGGTCTCCC
DNA 2: TGGTGGCTACGACGGGATT
B11: UUACUUG (DNA:RNA)
RNA: B9 RNA with A25U, G26U, C27A, C30U
DNA 1: CAATCTGAATTCCGGTCTCCC
DNA 2: TGGTGGCTACGACGGGATT
B12: CUGUCCG (DNA:RNA)
RNA: B9 RNA with A25C, G26U, C27G, C28U, U29C
DNA 1: CAATCTGAATTCCGGTCTCCC
DNA 2: TGGTGGCTACGACGGGATT
B13: UGAAAGA (DNA:RNA)
RNA: B1 RNA with A26G, U28A, G29A, C31A
DNA 1: CAATCTGAATTCCGGTCTCCC
DNA 2: TGGTGGCTACGACGGGATT
B14: UGGUCGA (DNA:RNA)
RNA: B1 RNA with A26G, A27G, G29C, C31A
DNA 1: CAATCTGAATTCCGGTCTCCC
DNA 2: TGGTGGCTACGACGGGATT
B15: CUUAGGU (DNA:RNA)
RNA: B1 RNA with U25C, A26U, A27U, U28A, C31U
DNA 1: CAATCTGAATTCCGGTCTCCC
DNA 2: TGGTGGCTACGACGGGATT
B16: CCGCUGU (DNA:RNA)
RNA: B9 RNA with A25C, G26C, C27G, C30G, G31U
DNA 1: CAATCTGAATTCCGGTCTCCC
DNA 2: TGGTGGCTACGACGGGATT
B17: AAGUCAG (DNA:RNA)
RNA: B9 RNA with G26A, C27G, C28U, U29C, C30A
DNA 1: CAATCTGAATTCCGGTCTCCC
DNA 2: TGGTGGCTACGACGGGATT
B18: GUCACAG (DNA:RNA)
RNA: B9 RNA with A25G, G26U, C28A, U29C, C30A
DNA 1: CAATCTGAATTCCGGTCTCCC
DNA 2: TGGTGGCTACGACGGGATT
B19: AAGAAGG (DNA:RNA)
RNA: B9 RNA with G26A, C27G, C28A, U29A, C30G
DNA 1: CAATCTGAATTCCGGTCTCCC
DNA 2: TGGTGGCTACGACGGGATT
B20: CAUGGUA (DNA:RNA)
RNA: B1 RNA with U25C, A27U, U28G, G30U, C31A
DNA 1: CAATCTGAATTCCGGTCTCCC
DNA 2: TGGTGGCTACGACGGGATT

Molecular target: T1, RBFOX1 RRM
Assay: EMSA; HiTS-Eq, 1 nM pool, 10 min; buffer printed only for the single-RNA assays: 10 mM Tris pH 7.5, 150 mM NaCl, 3.4 mM EDTA, 0.001% NP-40, 30 C
Conditions: tags: His6 N-terminal (pET28a); label: 5' 32P
Summary of the method: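 These values rest on relative association constants, computed from read-count changes of each RNA species versus the control reaction and normalised to the cognate motif. Reads came from free RNA recovered by 8% native PAGE after purified RbFox RRM (wild type or mutant) at increasing concentrations was equilibrated for 10 min in 50 µL with 1 nM of a 5′-radiolabelled pool with 7 randomized nucleotides and DNA-annealed flanks.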

| Binder | binding signal |
| --- | --- |
| B1 | 0.0107 KA relative to UGCAUGU |
| B2 | 0.0111 KA relative to UGCAUGU |
| B3 | 0.00048 KA relative to UGCAUGU |
| B4 | 0.0181 KA relative to UGCAUGU |
| B5 | 0.013 KA relative to UGCAUGU |
| B6 | 0.000118 KA relative to UGCAUGU |
| B7 | 0.0143 KA relative to UGCAUGU |
| B8 | 0.00916 KA relative to UGCAUGU |
| B9 | 0.00905 KA relative to UGCAUGU |
| B10 | 0.00503 KA relative to UGCAUGU |
| B11 | 0.0182 KA relative to UGCAUGU |
| B12 | 0.0164 KA relative to UGCAUGU |
| B13 | 0.0171 KA relative to UGCAUGU |
| B14 | 0.0247 KA relative to UGCAUGU |
| B15 | 0.0134 KA relative to UGCAUGU |
| B16 | 0.0129 KA relative to UGCAUGU |
| B17 | 0.00914 KA relative to UGCAUGU |
| B18 | 0.00981 KA relative to UGCAUGU |
| B19 | 0.00952 KA relative to UGCAUGU |
| B20 | 0.0123 KA relative to UGCAUGU |
